Experimental data from US10509035B2, “Antibodies, antibody drug conjugates and methods of use” (GAMAMABS PHARMA, priority 2015, dated 2019).

Experiments:
[1] = biological target: T1, AMHR2 receptor expressed at the surface membrane of the COV434 AMHR2 transfected cell line (Homo sapiens, UniProt Q16671); assay: FACS binding to AMHR-II receptor at the surface of the COV434 AMHR-II transfected cell line; conditions: concentrations 0.5 to 75 μg/ml, Hill slope fit (Example 4)
T1 construct: expressed in transfected cells; host or cells: COV434
T1 sequence (Q16671 18-573): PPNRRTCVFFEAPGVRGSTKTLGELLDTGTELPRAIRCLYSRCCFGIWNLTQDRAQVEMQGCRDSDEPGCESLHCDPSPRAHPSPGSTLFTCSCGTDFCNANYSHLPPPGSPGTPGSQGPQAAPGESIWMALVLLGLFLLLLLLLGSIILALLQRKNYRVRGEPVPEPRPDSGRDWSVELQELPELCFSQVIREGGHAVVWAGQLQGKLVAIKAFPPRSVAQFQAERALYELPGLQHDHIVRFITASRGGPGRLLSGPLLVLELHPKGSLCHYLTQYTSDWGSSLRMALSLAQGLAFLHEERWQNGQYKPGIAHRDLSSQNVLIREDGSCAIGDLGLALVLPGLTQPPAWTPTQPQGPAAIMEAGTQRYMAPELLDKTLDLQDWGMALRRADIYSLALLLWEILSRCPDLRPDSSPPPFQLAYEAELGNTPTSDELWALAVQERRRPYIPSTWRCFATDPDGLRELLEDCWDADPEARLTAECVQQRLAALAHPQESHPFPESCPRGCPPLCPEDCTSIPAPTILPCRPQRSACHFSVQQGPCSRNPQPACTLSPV
Protocol: The COV434 AMHR-II transfected and the COV434 WT cell lines were maintained in DMEM/GlutaMax (Gibco) supplemented with 10% FBS, penicillin 100 U/ml and Streptomycin 100 μg/ml. Geneticin at 666 μg/ml was added for the COV434 AMHR-II transfected cell line. […] After washes, Phycoerythrin-conjugated anti-human IgG antibody (1:200, Beckman-Coulter) was added for 1 hour at room temperature. FACS analysis of the resuspended cells was done on a BD Accuri™ C6 flow cytometer (BD Bioscience).
The binding capacity of the anti-AMHR-II antibody variants K4D24 and 6C59 to the AMHR-II expressing cell lines was evaluated by flow cytometry analysis in the same manner as example 4. FACS analysis with COV434-AMHR-II transfected cell line is described in FIG. 16. The Kapparent of the K4D24 and 6C59 variants were improved by a factor of 20 and 40 fold respectively as compared to the 3C23K (0.098 μg/ml and 0.05 μg/ml versus 2.2 μg/ml). The binding capacity of these variants was also assayed on the low expressing AMHR-II COV434 WT cell line. In this setting the binding was evaluated with three concentrations of variants (25, 10 and 5 μg/ml) and three concentrations of 3C23K (50, 25 and 10 μg/ml).

[2] = system: COV434 AMHR-II transfected cell line tumor xenograft; assay: Dose response in COV434 AMHR-II transfected cell line tumor xenograft in nude mice; format: in vivo; conditions: for Tumor volumes (mean ± sem): once on day 0
Protocol: A COV434 AMHR-II transfected cell line were cultured as described in example 2 and implanted in female athymic nude mice (Hsd:Athymic Nude-Fox1nu, Harlan Laboratories). 10×10^6 cells (100 μl) were injected in the interscapular mammary fat pad of the mice with matrigel. Mice were allocated to different group according to their tumor volume to give homogenous mean and median tumor volume in each treatment arms. For each group, 10 mice with established growing tumors and tumors volume ranging 60 to 200 mm^3 were included in the study. […] The corresponding vehicle (PBS) was administrated on the same day. During the whole experimental period, from grafting to study termination, animals were observed every day, for physical appearance, behavior and clinical changes. Tumor volume was evaluated by measuring tumor diameters three times a week and their size was calculated as mm^3=0.5× (tumor length, mm)×(tumor width, mm)^2 with the length and the width are the longest and the shortest diameters respectively.

B1: GM103 (conjugate)
heavy: QVRLVQSGAEVKKPGASVKVSCKASGYTFTSYHIHWVRQAPGQRLEWMGWIYPGDDSTKYSQKFQGRVTITRDTSASTAYMELSSLRSEDTAVYYCTRGDRFAYWGQGTLVTVSS[human IgG1 constant region left out here]
light: DIQMTQSPSTLSASVGDRVTITCRASSSVRYIAWYQQKPGKAPKLLTYPTSSLKSGVPSRFSGSGSGTEFTLTISSLQPDDFATYYCLQWSSYPWTFGGGTKVEIKRTVAAPSVFIFPPSDEQLKSGTASVVCLLNNFYPREAKVQWKVDNALQSGNSQESVTEQDSKDSTYSLSSTLTLSKADYEKHKVYACEVTHQGLSSPVTKSFNRGEC
[1]
  KDapparent: 3.1 µg/mL
[2]; 1 mg/kg i.v., Day 0
  Tumor volumes (mean ± sem): 86 ± 10 mm^3
[2]; 1 mg/kg i.v., Day 2
  Tumor volumes (mean ± sem): 101 ± 15 mm^3
[2]; 1 mg/kg i.v., Day 4
  Tumor volumes (mean ± sem): 116 ± 24 mm^3
[2]; 1 mg/kg i.v., Day 7
  Tumor volumes (mean ± sem): 129 ± 43 mm^3
[2]; 1 mg/kg i.v., Day 9
  Tumor volumes (mean ± sem): 142 ± 56 mm^3
[2]; 1 mg/kg i.v., Day 11
  Tumor volumes (mean ± sem): 159 ± 72 mm^3
[2]; 1 mg/kg i.v., Day 14
  Tumor volumes (mean ± sem): 199 ± 86 mm^3
[2]; 1 mg/kg i.v., Day 16
  Tumor volumes (mean ± sem): 322 ± 146 mm^3
[2]; 1 mg/kg i.v., Day 21
  Tumor volumes (mean ± sem): 647 ± 309 mm^3
[2]; 5 mg/kg i.v., Day 0
  Tumor volumes (mean ± sem): 83 ± 7 mm^3
[2]; 5 mg/kg i.v., Day 2
  Tumor volumes (mean ± sem): 83 ± 9 mm^3
[2]; 5 mg/kg i.v., Day 4
  Tumor volumes (mean ± sem): 46 ± 8 mm^3
[2]; 5 mg/kg i.v., Day 7
  Tumor volumes (mean ± sem): 17 ± 4 mm^3
[2]; 5 mg/kg i.v., Day 11
  Tumor volumes (mean ± sem): 1 ± 0 mm^3
[2]; 5 mg/kg i.v., Day 14
  Tumor volumes (mean ± sem): 0 ± 0 mm^3
[2]; 5 mg/kg i.v., Day 16
  Tumor volumes (mean ± sem): 0 ± 0 mm^3
[2]; 5 mg/kg i.v., Day 21
  Tumor volumes (mean ± sem): 0 ± 0 mm^3
[2]; 5 mg/kg i.v., Day 23
  Tumor volumes (mean ± sem): 0 ± 0 mm^3
[2]; 5 mg/kg i.v., Day 25
  Tumor volumes (mean ± sem): 0 ± 0 mm^3
[2]; 5 mg/kg i.v., Day 28
  Tumor volumes (mean ± sem): 0 ± 0 mm^3
[2]; 5 mg/kg i.v., Day 32
  Tumor volumes (mean ± sem): 0 ± 0 mm^3
[2]; 5 mg/kg i.v., Day 35
  Tumor volumes (mean ± sem): 0 ± 0 mm^3
[2]; 5 mg/kg i.v., Day 39
  Tumor volumes (mean ± sem): 0 ± 0 mm^3
[2]; 5 mg/kg i.v., Day 42
  Tumor volumes (mean ± sem): 0 ± 0 mm^3
[2]; 5 mg/kg i.v., Day 56
  Tumor volumes (mean ± sem): 8 ± 2 mm^3
[2]; 5 mg/kg i.v., Day 63
  Tumor volumes (mean ± sem): 14 ± 5 mm^3
[2]; 5 mg/kg i.v., Day 70
  Tumor volumes (mean ± sem): 52 ± 26 mm^3
[2]; 10 mg/kg i.v., Day 0
  Tumor volumes (mean ± sem): 84 ± 8 mm^3
[2]; 10 mg/kg i.v., Day 2
  Tumor volumes (mean ± sem): 66 ± 9 mm^3
[2]; 10 mg/kg i.v., Day 4
  Tumor volumes (mean ± sem): 19 ± 4 mm^3
[2]; 10 mg/kg i.v., Day 7
  Tumor volumes (mean ± sem): 6.78 ± 3^ mm^3
[2]; 10 mg/kg i.v., Day 9
  Tumor volumes (mean ± sem): 0.5 ± 0 mm^3
[2]; 10 mg/kg i.v., Day 11
  Tumor volumes (mean ± sem): 0 ± 0 mm^3
[2]; 10 mg/kg i.v., Day 14
  Tumor volumes (mean ± sem): 0 ± 0 mm^3
[2]; 10 mg/kg i.v., Day 16
  Tumor volumes (mean ± sem): 0 ± 0 mm^3
[2]; 10 mg/kg i.v., Day 21
  Tumor volumes (mean ± sem): 0 ± 0 mm^3
[2]; 10 mg/kg i.v., Day 23
  Tumor volumes (mean ± sem): 0 ± 0 mm^3
[2]; 10 mg/kg i.v., Day 25
  Tumor volumes (mean ± sem): 0 ± 0 mm^3
[2]; 10 mg/kg i.v., Day 28
  Tumor volumes (mean ± sem): 0 ± 0 mm^3
[2]; 10 mg/kg i.v., Day 32
  Tumor volumes (mean ± sem): 0 ± 0 mm^3
[2]; 10 mg/kg i.v., Day 35
  Tumor volumes (mean ± sem): 2 ± 1 mm^3
[2]; 10 mg/kg i.v., Day 39
  Tumor volumes (mean ± sem): 2 ± 1 mm^3
[2]; 10 mg/kg i.v., Day 42
  Tumor volumes (mean ± sem): 2 ± 1 mm^3
[2]; 10 mg/kg i.v., Day 70
  Tumor volumes (mean ± sem): 2 ± 1 mm^3
[2]; once intravenously at 10, 5 or 1 mg/kg
  inhibition of tumor growth compared to the vehicle control group: dose dependent inhibition of tumor growth
